Assay results reported in the supplement of paper PMC7125110.
Variants at the background level are over-represented here.

B1: glmS ribozyme (parent)
chain: AUAAAAGCGCCAGAACUACAGAAAUGUAGUUGACGAGGAGGAGGUUUAUCGAAUUUUCGGCGGAUGCCUCCAAA

Legend:
Settings in all cases: with glucosamine-6-phosphate
[1] = variants of: B1; experiment: self-cleavage kobs at 640 uM GlcN6P; higher = faster cleavage; RNA array
Method in brief: (§1)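 Barcoded ribozyme variants on sequenced MiSeq chips were transcribed in situ by E. coli RNA polymerase and followed at 37 °C through a hybridised Cy3 probe. Glucosamine-6-phosphate at 40 μM to 10 mM in HEPES/KCl/Mg(OAc)2 buffer was flowed in, and tiles were imaged over ~14 h. Signals were normalised to baseline and to non-cleaving reference variants, and per-tile medians were fit to one- or two-exponential decays to give kobs. Weighted Michaelis–Menten fits across concentrations gave kcat and KM.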

[2] = variants of: B1; experiment: self-cleavage kobs at 160 uM GlcN6P; higher = faster cleavage; RNA array
Method in brief: as §1

[3] = variants of: B1; experiment: self-cleavage kobs at 2500 uM GlcN6P; higher = faster cleavage; RNA array
Method in brief: as §1

[4] = variants of: B1; experiment: self-cleavage kobs at 10000 uM GlcN6P; higher = faster cleavage; RNA array
Method in brief: as §1

Variant	self-cleavage kobs at 640 uM GlcN6P [1] [s⁻¹]	self-cleavage kobs at 160 uM GlcN6P [2] [s⁻¹]	self-cleavage kobs at 2500 uM GlcN6P [3] [s⁻¹]	self-cleavage kobs at 10000 uM GlcN6P [4] [s⁻¹]
C8A U54C	< 1e-05	< 1e-05	< 1e-05	< 1e-05
G7C C11A A36G	< 1e-05		< 1e-05	< 1e-05
C8G A14C G63A	< 1e-05		< 1e-05	
C8A G32C A33C G38C G51A U54C	< 1e-05			
G7U G41A G43U	< 1e-05		< 1e-05	
G7C U65C	< 1e-05		< 1e-05	
C8A A33U G51A	< 1e-05	< 1e-05		
G7U U30C G32A G41C U54C G60U	< 1e-05			
C8A A52G	< 1e-05		< 1e-05	
C8A A15U G63C	< 1e-05	< 1e-05		
G7U A15U U49C A52C	< 1e-05		< 1e-05	< 1e-05
G7C G32A A39C G44A U46A G63C C71G	< 1e-05		< 1e-05	
G7U G63C	< 1e-05	< 1e-05	< 1e-05	
C8A U30C G51U	< 1e-05			
G7U G32C G38C A42U C50U	< 1e-05			
G7U C10G C11A U47A U49A A53U G62A	< 1e-05			< 1e-05
G7C C16U	< 1e-05	< 1e-05	< 1e-05	< 1e-05
G7U G35U U45G	< 1e-05	< 1e-05		
G7U G35C C71U	< 1e-05	< 1e-05		

Variant	self-cleavage kobs at 640 uM GlcN6P [1] [s⁻¹]	self-cleavage kobs at 160 uM GlcN6P [2] [s⁻¹]	self-cleavage kobs at 2500 uM GlcN6P [3] [s⁻¹]	self-cleavage kobs at 10000 uM GlcN6P [4] [s⁻¹]
G7U U49G	< 1e-05	< 1e-05	< 1e-05	< 1e-05
G7C U30G C61A	< 1e-05			
C8A A14C C34G A39C	< 1e-05		< 1e-05	< 1e-05
G7U A33C A36C	< 1e-05		< 1e-05	
G7U A33U G35A	< 1e-05		< 1e-05	
G7C G62U C68U	< 1e-05	< 1e-05		
G7C G43A	< 1e-05	< 1e-05	< 1e-05	< 1e-05
G7U G43U C67G	< 1e-05			
C8A G44A A48G U49G G60U	< 1e-05			
G7C U69C	< 1e-05	< 1e-05	< 1e-05	< 1e-05
G7U A15C U65G	< 1e-05			
G7C U47A	< 1e-05	< 1e-05		< 1e-05
C8A G29C G38U G66C	< 1e-05		< 1e-05	
G7C G41A U47C	< 1e-05			
C8A G9C G37C	< 1e-05			
C8A A12C	< 1e-05	< 1e-05	< 1e-05	< 1e-05
G7U G62A C67A	< 1e-05	< 1e-05	< 1e-05	
G7U G38C U47C U49A	< 1e-05			
G7C G44U C61U C70G	< 1e-05		< 1e-05	

Variant	self-cleavage kobs at 640 uM GlcN6P [1] [s⁻¹]	self-cleavage kobs at 160 uM GlcN6P [2] [s⁻¹]	self-cleavage kobs at 2500 uM GlcN6P [3] [s⁻¹]	self-cleavage kobs at 10000 uM GlcN6P [4] [s⁻¹]
G7U G13C	< 1e-05		< 1e-05	< 1e-05
G7U A12U A15G	< 1e-05		< 1e-05	
C8A G13C C16G A33U	< 1e-05			
C8A G35A G51A C58G A64C	< 1e-05	< 1e-05	< 1e-05	
G7C U45A	< 1e-05	< 1e-05	< 1e-05	< 1e-05
G7U G51U	< 1e-05	< 1e-05	< 1e-05	< 1e-05
C8A C10A C58U	< 1e-05			
C8A A14G G29A A36U	< 1e-05		< 1e-05	
C8A G41U G60U C61U	< 1e-05			
G7U A36C C50A	< 1e-05		< 1e-05	
G7U U55A	< 1e-05	< 1e-05		
G7C C50U G63A U65C	< 1e-05			
G7C U45A C70U	< 1e-05	< 1e-05		
G7C G13U A15U	< 1e-05	< 1e-05		
C8G A12G G43C U57G A64U	< 1e-05		< 1e-05	
G7C G26U G37C	< 1e-05			
C8A U30G C34G	< 1e-05			
G7C U46G	< 1e-05	< 1e-05	< 1e-05	< 1e-05
